In PubChem BioAssay AID686978 (National Center for Advancing Translational Sciences (NCATS), 2013):
The whole screen tested about 420,000 compounds, of which about 64,000 (15%) were called active. This list was built around the results that the source calls inconclusive (neither active nor inactive); the mix of calls is not that of the screen. Calls come from the whole dose curve; as a rule, active = well fitted inhibition curve with a large enough effect; inconclusive = small, poorly fitted or top-dose-only effect; inactive = flat fitted curve, though single readings scatter. Potencies of inconclusive entries are left out as doubtful fits.
% is set by controls: 0 for no effect and ±100 for the full control effect; potency is the fitted concentration of half-maximal effect; tags give direction and shape of the fitted curve.

Test: qHTS for Inhibitors of human tyrosyl-DNA phosphodiesterase 1 (TDP1): qHTS in cells in absence of CPT; note: nearly all actives have a fitted effect of over 55% in size
Details: DT40 Tdp1-/- hTDP1 cells, no CPT, ATP luminescence, 48 h; activity change, negative = growth inhibition: at 46.2 µM (top of the series) unless noted
Outline: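 Seeded 400 DT40-hTDP1 cells/well (vehicle DMSO, no 20 nM CPT); pinned compounds; ≥48 hr at 37 °C; CellTiter-Glo luminescence as viability measure.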
In the case of c1ccc(Nc2c(-c3ccccc3)nc3ncccn23)cc1, the Potency was inconclusive [inhibitor, single point]. In the case of COC(=O)c1cc(NC(=O)c2cccc(F)c2)cc(C(=O)OC)c1, the Potency was inconclusive [inhibitor, single point]. For O=C(CSc1nc(-c2ccc(F)cc2)cs1)N1CCc2ccccc21, the Potency was inconclusive [inhibitor, single point]. With COc1ccc(-c2noc(CCCC(=O)N3CCOCC3)n2)cc1 the Potency was inconclusive [inhibitor, single point]. With CCOc1ccc(C(=O)C[n+]2cccc3cc(C)ccc32)cc1 the Potency was inconclusive [inhibitor, single point]. For CCCc1cc(NCc2ccccn2)n2nc(C)c(-c3ccccc3)c2n1, the Potency was active: 0.92 µM. For O=C(CCNS(=O)(=O)c1ccc(Br)s1)Nc1ccc(Br)cc1, the Potency was inconclusive [inhibitor, single point]. In the case of Cc1ccc(C)c(NC(=S)NC(=O)c2cncc(Br)c2)c1, the Potency was inconclusive [inhibitor, single point]. In the case of CC(C)(C)c1ccc(C(=O)N/C(=C/c2cccs2)C(=O)NCc2ccco2)cc1, the Potency was inconclusive [inhibitor, single point]. In the case of Cc1ccc(C(=O)Nc2ccccc2N2CCCCC2)cc1, the Potency was inconclusive [inhibitor, partial curve, poor fit]. For Cc1ccc(CNCc2ccc3c(c2)n(C)c(=O)n3C)cc1, the Potency was “inactive”. With CCc1cc2cc(C(=O)N3CCN(Cc4ccccc4)CC3)sc2s1 the Potency was inconclusive [inhibitor, single point]. For COCC(=O)N(CCc1ccc(OC)cc1)Cc1nc2ccccc2c(=O)[nH]1, the Potency was active: 3.26 µM. For Cc1ccc(C)c(S(=O)(=O)N2CCN(C(=O)c3sccc3C)CC2)c1, the activity change, negative = growth inhibition was inconclusive: -35.7% [inhibitor]. For Cc1ccc(C(=O)N2CCC(Cc3ccccc3)CC2)cc1[N+](=O)[O-], the Potency was inconclusive [inhibitor, single point]. With N#C/C(=N\Nc1ccc(Cl)cc1)C(=O)c1ccccc1 the Potency was active: 10.3 µM. For COc1ccc(CN(C(=O)Nc2cc(C)ccc2C)C2CCN(C(C)=O)CC2)cc1, the Potency was inconclusive [inhibitor, single point]. With Cc1noc(C)c1COc1ccccc1C(=O)N1CCN(S(=O)(=O)c2ccc(C(C)C)cc2)CC1 the Potency was active: 16.4 µM. With Cn1c(CC(=O)NNC(=O)c2cncc(Br)c2)nc2ccccc21 the Potency was “inactive”. In the case of COC(=O)c1c(C(=O)OC)c2cc(C(=O)c3ccccc3)ccn2c1Cl, the Potency was inconclusive [inhibitor, single point]. With O=C(Cn1[nH]c(=O)c2ccccc2c1=O)Nc1cccc(S(=O)(=O)N2CCCCCC2)c1 the Potency was inconclusive [inhibitor, single point]. For COc1cc(NS(=O)(=O)c2ccc(NC(=O)COc3ccc(Cl)cc3Cl)cc2)nc(OC)n1, the Potency was “inactive”. In the case of Cc1cccc(OCC(O)Cn2c(-n3nc(C)cc3C)nc3c2c(=O)[nH]c(=O)n3C)c1 (stereo not given), the Potency was inconclusive [inhibitor, partial curve, poor fit]. In the case of Cc1ccccc1SCC(=O)OCC(=O)NCCNC(=O)COC(=O)CSc1ccccc1C, the Potency was “inactive”. For COc1ccc(NC(=O)CC2Sc3ncnn3C2=O)cc1 (stereo not given), the Potency was active: 11.6 µM. With CCOC(=O)C1CCN(C(=O)CCc2nc3sc4c(c3c(=O)[nH]2)CCCC4)CC1 the Potency was inconclusive [inhibitor, single point]. In the case of O=C(COC(=O)CCC(=O)c1cccs1)NC(=O)c1ccc(OC(F)F)cc1, the Potency was “inactive”. For Cc1cc(C)n(-c2nnc(C)n2/N=C/c2ccccc2OCc2ccccc2Cl)n1, the Potency was active: 20.6 µM. With O=C(COC(=O)c1ccc(F)c(S(=O)(=O)N2CCOCC2)c1)c1ccccc1 the Potency was “inactive”. For O=C(NCc1ccccc1Cl)C(=O)NCC(c1ccc2c(c1)OCO2)N1CCOCC1 (stereo not given), the Potency was inconclusive [inhibitor, single point]. With Cc1cc(OCC(=O)NCCCN2CCOCC2)cc(C)c1Cl the Potency was inconclusive [inhibitor, single point]. For CCn1c(CC(=O)Nc2ccccc2F)nnc1SCC(=O)NC1=NCCS1, the Potency was inconclusive [inhibitor, single point]. In the case of CN1CCN(C(=O)c2ccc3nc(-c4ccccc4)c(-c4ccccc4)nc3c2)CC1, the Potency was inconclusive [inhibitor, partial curve, poor fit]. In the case of COc1cc2c(cc1OC)-c1cc(N3CCc4ccccc43)nc(=O)n1CC2, the Potency was inconclusive [inhibitor, partial curve]. With COCOc1ccc(/C=C/C(=O)c2c(OCOC)cc(OCOC)c(CC=C(C)C)c2O)cc1OCOC the Potency was inconclusive [inhibitor, partial curve]. For CCOc1ccc(NC(=O)CSc2nc(-c3ccccc3)c3cc(OCC)ccc3n2)cc1, the Potency was inconclusive [inhibitor, partial curve, poor fit]. For CCOc1ccccc1N(CC)C(=O)Cn1ncc2c1-c1ccccc1OC2, the Potency was active: 16.4 µM. In the case of Cc1cc(C)c2c(CC(=O)NCc3ccco3)coc2c1, the Potency was inconclusive [inhibitor, single point]. For COc1ccccc1-c1cc(NC(C)=O)c2ncc(-c3ccc(F)cc3)n2c1, the Potency was inconclusive [inhibitor, single point]. In the case of CCC(C)NC(=O)c1ccc(CSCc2ccc(Cl)cc2)o1 (stereo not given), the Potency was active: 25.9 µM. In the case of Cc1ccc(SCC2CNc3nc4ccccc4c(=O)n32)c(C)c1 (stereo not given), the Potency was inconclusive [inhibitor, single point]. With Cc1cc(N2CCOCC2)n2ncc(-c3ccccc3Cl)c2n1 the Potency was “inactive”. With CC(=O)c1cccc(NC(=O)CSc2ncc(C(=O)Nc3ccccc3)c(=O)n2C)c1 the Potency was active: 7.31 µM. In the case of COc1ccc(Cl)cc1NC(=O)c1cc(-c2ccccc2)on1, the Potency was “inactive”. In the case of O=C(COc1ccccc1)NC(NC(=S)Nc1ccccc1O)C(Cl)(Cl)Cl (stereo not given), the Potency was “inactive”. For Cc1cc(C(=O)NNC(=S)Nc2ccccc2)nn1C, the Potency was “inactive”. With Cc1cc(Nc2nn(C)c(N)c2C#N)ccc1F the Potency was inconclusive [inhibitor, single point]. For C=CCn1c(=O)[nH]c2cc(C(=O)N3CCN(c4cc(C)ccc4C)CC3)ccc2c1=O, the Potency was inconclusive [inhibitor, single point]. With COc1ccccc1-c1cnc(C(O)c2ccc(C(C)(C)C)cc2)[nH]1 (stereo not given) the Potency was active: 18.4 µM. With Cc1ccc(N(CC(=O)NC2CCCC2)C(=O)c2ccc(C)s2)cc1 the Potency was inconclusive [inhibitor, single point]. In the case of CCC(CC)C(=O)N1CCc2cc(OC)c(OC)cc2C1COc1ccc2c(C)cc(=O)oc2c1 (stereo not given), the Potency was active: 16.4 µM. In the case of CCOc1cc(N2CCOCC2)c(OCC)cc1NC(=O)C(C)(C)C, the Potency was inconclusive [inhibitor, partial curve]. In the case of O=C(c1ccc(NS(=O)(=O)c2ccc3[nH]c(=O)[nH]c3c2)cc1)N1CCN(c2ccccc2O)CC1, the Potency was “inactive”. In the case of COc1ccc(CNC(=O)CCS(=O)(=O)c2cc3c4c(c2)CCN4C(=O)CC3)cc1OC, the Potency was “inactive”. For COc1ccc(Cn2c3ccc(OC)cc3c3nc4ccccc4nc32)cc1, the Potency was inconclusive [inhibitor, single point]. In the case of CCn1c(C(=O)N2CCc3ccccc3C2)cc2oc3ccccc3c21, the Potency was inconclusive [inhibitor, partial curve]. In the case of COc1cccc(NC(=O)CN(c2ccccc2OC)S(=O)(=O)c2cccs2)c1, the Potency was active: 20.6 µM. In the case of O=C1CC[C@@H](C(=O)N[C@H]2C[C@@H]2c2ccccc2)N1, the Potency was “inactive”. In the case of CCc1ccc(C(C(=O)NC(C)(C)CC)N(Cc2ccco2)C(=O)Cn2nnc3ccccc32)cc1 (stereo not given), the Potency was inconclusive [inhibitor, single point]. With O=C(NCC1CCCO1)C(c1cccs1)N(C(=O)c1ccc(CN2CCOCC2)o1)c1ccc(Cl)cc1 (stereo not given) the Potency was inconclusive [inhibitor, single point]. With Cc1ccc(C)c(N(CC(=O)Nc2ccccc2C(=O)NCc2ccco2)S(=O)(=O)c2ccccc2)c1 the Potency was active: 16.4 µM. With COc1ccc(-c2nc(CN3CCC(C(=O)NC4CCN(Cc5ccccc5)CC4)CC3)c(C)o2)cc1OC the Potency was “inactive”. With CCN1CCC(O)(C(C(=O)OC)c2ccccc2)CC1 (stereo not given) the Potency was “inactive”. With C=CCSC1=NC(=O)/C(=C/c2cccs2)S1 the Potency was inconclusive [inhibitor, single point]. For CCOc1ccc(CN(CC)C(=O)c2ccc3c(c2)[nH]c(=O)c(=O)n3CC)cc1OC, the Potency was inconclusive [inhibitor, single point]. For COc1ccc(OC)c(C(=O)NC(CC(N)=O)c2ccc(N3CCN(c4ccccn4)CC3)c([N+](=O)[O-])c2)c1 (stereo not given), the Potency was inconclusive [inhibitor, single point]. In the case of CC(C)(C)C(=O)Nc1ccc(C(=O)COC(=O)C2=COCCO2)cc1, the Potency was “inactive”. In the case of Cc1ccccc1-n1c(=O)c2ccccc2n2cnnc12, the Potency was “inactive”. In the case of CCc1ccc(S(=O)(=O)NCc2csc(C)n2)cc1, the activity change, negative = growth inhibition was inconclusive: -33.1% [inhibitor]. In the case of Cc1cc(Cl)ccc1NC(=O)CCS(=O)(=O)c1ccc2c(c1)CC(C)N2C(=O)C1CC1 (stereo not given), the Potency was inconclusive [inhibitor, partial curve, poor fit].
